# Test results reported in PubChem BioAssay AID1508642 (National Center for Advancing Translational Sciences (NCATS), 2021).
# The campaign covered roughly 43,000 compounds. About 200 (0.47%) were called active. This list was built around the results that the source calls inconclusive (neither active nor inactive); the mix of calls is not that of the screen. The call rests on the fitted dose curve; in most records, active means well fitted cell-killing curve with a large enough effect; inconclusive means small, poorly fitted or top-dose-only effect, or effect the other way; inactive means flat fitted curve, though single readings scatter. A potency beside an inconclusive call is a rough fit, not a confirmed value.
# Assay: Cell viability qHTS assay in S16 Pmp22-F2sN cells; further: nearly all actives have a fitted effect of over 65% in size
# Details: S16 Pmp22-F2sN Schwann cells viability, CellTiter-Glo, 24 h; activity change, negative = cytotoxicity: at 57.5 µM (top of the series)
# Method in brief: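 S16 Pmp22-F2sN Schwann cells (500-1,000/well) in phenol-red-free DMEM with 10% FBS received 23 nL compound by pin tool for 24 h at 37 °C. Viability was then read as CellTiter-Glo luminescence after 15 min at room temperature.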
# On the % scale 0 is the no-effect control and ±100 the full control effect; potency means the concentration at half of the fitted maximal effect; tags describe the fitted curve by direction and shape.
SMILES,Potency,"activity change, negative = cytotoxicity"
CCOc1ccccc1NC(=O)C(Cc1ccccc1)NS(=O)(=O)c1ccc(Br)s1 (stereo not given),"inconclusive: 0.501 µM [rising, full curve, poor fit]",–
CCOC(=O)C1CCCN(C(=O)C2CCN(c3nnc(C)c4c(C)n(-c5ccccc5)nc34)CC2)C1 (stereo not given),–,inactive: -8.52%
CCc1ccc(CNC(=O)C(CC)n2ccc3cc(S(=O)(=O)N4CCCCC4)ccc32)cc1 (stereo not given),"inconclusive: 20 µM [cytotoxic, single point]",–
CN1c2cc(Cl)ccc2-c2nc(SCC(=O)Nc3ccc(F)cc3F)ncc2S1(=O)=O,active: 25.1 µM,–
COc1ccc(N2Cc3cccc(C(=O)Nc4ccc(C(C)C)cc4)c3C2=O)cc1,"inconclusive: 39.8 µM [cytotoxic, single point]",–
CCc1ccc(NC(=O)c2ccc3c(c2)N(Cc2ccc(C)cc2)CCS3)cc1,"inconclusive: 28.2 µM [cytotoxic, single point]",–
CCOc1ccc(S(=O)(=O)N(CC(=O)NCCSCc2ccc(C)cc2)c2ccccc2)cc1,"inconclusive: 25.1 µM [rising, partial curve, poor fit]",–
O=C(NCc1ccc(F)cc1)c1ccc(CS(=O)(=O)c2ccc(Cl)cc2)o1,"inconclusive: 31.6 µM [cytotoxic, single point]",–
Cc1cccc(-c2noc(CN(C(=O)COc3ccc(C(C)C)cc3)C(C)C)n2)c1,"inconclusive: 8.91 µM [cytotoxic, partial curve]",–
CCOc1ccc(-c2nc(CSCC(=O)N3CCN(c4cccc(C(F)(F)F)c4)CC3)c(C)o2)cc1,"inconclusive: 31.6 µM [cytotoxic, partial curve, poor fit]",–
Cc1cccc(OCC(=O)Nc2c(C)ccc3nsnc23)c1C,–,inactive: -24.2%
CCOCCc1nn2c(=O)cc(COC(=O)CNC(=O)c3ccc(C(C)(C)C)cc3)nc2s1,"inconclusive: 39.8 µM [cytotoxic, single point]",–
O=C(Nc1ccc2oc(-c3ccccc3F)nc2c1)c1ccccc1Cl,"inconclusive: 7.94 µM [rising, single point]",–
COc1ccc(NC(=O)CSc2ncc3c(n2)-c2cc(Cl)ccc2N(Cc2ccccc2F)S3(=O)=O)cc1,"inconclusive: 20 µM [cytotoxic, partial curve, poor fit]",–
CCOC(=O)c1ccccc1NC(=O)N1CCc2c(sc(C)c2CC)C1c1ccccc1 (stereo not given),–,inactive: 4.15%
COc1ccccc1-c1nc2c(c(SCc3cccc(Cl)c3)n1)Cc1c(CO)cnc(C)c1O2,"inconclusive: 39.8 µM [cytotoxic, partial curve, poor fit]",–
CCc1ccc(C2c3c(-c4ccccc4O)n[nH]c3C(=O)N2Cc2ccncc2)cc1 (stereo not given),"inconclusive: 39.8 µM [cytotoxic, single point]",–
Cc1cccc(NC(=O)CCCn2c(C)c3cnn(-c4ccccc4)c(=O)c3c2C)c1C,–,inactive: -3.71%
O=C(CCSc1nc(-c2ccco2)cc(C(F)(F)F)n1)Nc1cccc(O)c1,"inconclusive: 31.6 µM [cytotoxic, single point]",–
COc1ccc(C2=CC(c3ccc(F)cc3)n3ncc(C(=O)Nc4ccc(C)cc4)c3N2)cc1 (stereo not given),"inconclusive: 2 µM [cytotoxic, full curve, poor fit]",–

SMILES,Potency,"activity change, negative = cytotoxicity"
Clc1cccc(N2CCN(c3ncnc4c3nc3n4CCCCC3)CC2)c1,–,inactive: -10.2%
CCc1ccc(NC(=O)c2cc(C(C)=O)n3ccccc23)cc1,"inconclusive: 25.1 µM [cytotoxic, partial curve]",–
COc1ccccc1C1C=C(c2ccc(F)cc2)Nc2nc(-c3ccc(Cl)cc3)nn21 (stereo not given),"inconclusive: 39.8 µM [cytotoxic, partial curve, poor fit]",–
CCOC(=O)c1cnc2ccc(OCC)cc2c1N1CCN(c2cccc(Cl)c2)CC1,"inconclusive: 28.2 µM [rising, partial curve, poor fit]",–
COC(=O)c1ccccc1NC(=O)Nc1cccc(OCc2cc(=O)n3cccc(C)c3n2)c1,–,inactive: 2.48%
Cc1cc2c(cc1NC(=O)c1ccc(C(C)(C)C)cc1)n(C)c(=O)c(=O)n2C,"inconclusive: 8.91 µM [rising, partial curve]",–
CCOc1ccccc1CNC(=O)c1nn(C)c2c1CS(=O)(=O)c1ccccc1-2,"inconclusive: 25.1 µM [cytotoxic, single point]",–
Cc1ccc(NC(=O)Cn2cc(S(=O)(=O)N3CCN(c4ccccc4F)CC3)c3ccccc3c2=O)cc1F,–,inactive: 0.744%
CCN(CC)CCNC(=O)C1CCCN(c2nnc(C)c3c(C)n(-c4ccc(Cl)cc4)nc23)C1 (stereo not given),"inconclusive: 20 µM [cytotoxic, single point]",–
CCOc1ccc(-c2cn3c(n2)sc2cc(C(=O)NCCC4=CCCCC4)ccc23)cc1,"inconclusive: 39.8 µM [cytotoxic, single point]",–
COc1ccc(S(=O)(=O)NCC(c2ccco2)S(=O)(=O)c2ccc(C)cc2)cc1C (stereo not given),"inconclusive: 39.8 µM [cytotoxic, single point]",–
O=S(=O)(NCCc1csc(-c2ccc(F)cc2)n1)c1ccc(F)cc1F,"inconclusive: 39.8 µM [cytotoxic, single point]",–
CCn1cc2nc(SCc3cc(C)ccc3C)n(Cc3ccc(C)cc3)c(=O)c2n1,"inconclusive: 39.8 µM [cytotoxic, single point]",–
COC(=O)c1ccc(CSc2nc3c([nH]c4ccccc43)c(=O)n2-c2cccc(OC)c2)o1,–,inactive: -7.47%
Cc1nn(Cc2ccccc2)c(C)c1NC(=O)c1cc(C(C)C)on1,"inconclusive: 25.1 µM [cytotoxic, partial curve, poor fit]",–
COc1ccc(-c2cc(C(F)(F)F)nc(S(=O)(=O)CCCC(=O)Nc3ccccc3C(F)(F)F)n2)cc1OC,"inconclusive: 28.2 µM [cytotoxic, single point]",–
COc1ccc(S(=O)(=O)N2Cc3ccccc3CC2C(=O)Nc2cccc(C)c2)cc1OC (stereo not given),"inconclusive: 39.8 µM [cytotoxic, single point]",–
Cc1ccc(C)c(N2CCN(CCCNC(=O)Cn3c(-c4cccs4)cc4ccccc43)CC2)c1,"inconclusive: 39.8 µM [cytotoxic, single point]",–
CCCn1cc(S(=O)(=O)c2cccc(Cl)c2)c(=O)c2cc(F)c(N3CCN(CC)CC3)cc21,"inconclusive: 39.8 µM [cytotoxic, single point]",–
COc1cccc(C(=O)c2sc(Nc3ccc(C)cc3C)c(S(=O)(=O)c3ccccc3)c2N)c1,"inconclusive: 28.2 µM [cytotoxic, single point]",–

SMILES,Potency,"activity change, negative = cytotoxicity"
COc1ccc(-c2csc3ncnc(Nc4ccc(OC)c(OC)c4)c23)cc1,"inconclusive: 17.8 µM [cytotoxic, single point]",–
Cc1cc(N2CCCCC2)nc2ccc(NC(=O)CCC(=O)N3CCN(c4cccc(Cl)c4)CC3)cc12,"inconclusive: 39.8 µM [cytotoxic, single point]",–
Cc1c(C(=O)OC2CCCCCC2)[nH]c2c1C(=O)CC(c1ccccc1Cl)C2 (stereo not given),–,inactive: -21.8%
Cc1ccccc1NC(=O)Cn1c(=O)n(CCCCC(=O)NCc2ccccc2Cl)c(=O)c2ccccc21,"inconclusive: 17.8 µM [cytotoxic, single point]",–
CCOC(=O)c1ccc(N2C(=O)c3[nH]nc(-c4ccccc4)c3C2c2cccs2)cc1 (stereo not given),–,inactive: -24.6%
O=C(CSc1nc2c(c(=O)[nH]1)CN(Cc1ccc(F)cc1)CC2)Nc1cccc(C(F)(F)F)c1,active: 14.1 µM,–
Cc1cc(C)nc(-n2nc(C)c3c2NC(=O)CC3c2ccccc2OC(C)C)n1 (stereo not given),"inconclusive: 39.8 µM [cytotoxic, single point]",–
COc1ccc(-c2cc(NCc3ccc(C)cc3)n3cnnc3n2)cc1,"inconclusive: 39.8 µM [cytotoxic, single point]",–
CCN1C(=O)c2ccccc2Sc2ccc(NC(=O)Nc3ccc(Br)c(C)c3)cc21,"inconclusive: 39.8 µM [cytotoxic, single point]",–
COc1ccc(Nc2nc(N)nc(CSc3nc4ccccc4s3)n2)cc1,"inconclusive: 35.5 µM [cytotoxic, single point]",–
CCOC(=O)C1=C(CN2CCN(c3ccc(C)cc3C)CC2)NC(=O)NC1c1ccc(OC)cc1 (stereo not given),"inconclusive: 39.8 µM [cytotoxic, single point]",–
Cc1ccccc1-c1nc(CN2CCC(C(=O)NC(C)C)CC2)c(C)o1,–,inactive: -2.24%
CCOc1ccc(-c2cn3nc(CC(C)C)sc3n2)cc1,–,inactive: -4.23%
Cc1cc(Nc2cccc(Cl)c2)nc2ccc(NC(=O)COc3ccc(Cl)cc3)cc12,"inconclusive: 39.8 µM [rising, single point]",–
Cc1oc2ccc(O)c(CN3CCCCCC3)c2c1C(=O)Nc1cccc(C(F)(F)F)c1,"inconclusive: 35.5 µM [cytotoxic, single point]",–
CC(C)c1ccc(NC(=O)c2ccc(=O)n(Cc3ccccc3)c2)cc1,"inconclusive: 39.8 µM [cytotoxic, single point]",–
COc1cc(Nc2nc(-c3ccc(OC)c(OC)c3)nc3ccccc23)cc(OC)c1,"inconclusive: 39.8 µM [cytotoxic, single point]",–
COc1ccccc1Nc1c2c(nc3ccc(NC(=O)c4ccc(N(C)C)cc4)cc13)CCCC2,"inconclusive: 39.8 µM [cytotoxic, single point]",–
CC(C)c1cc(-c2nc(-c3ccc(Cl)cc3)no2)n[nH]1,"inconclusive: 31.6 µM [cytotoxic, single point]",–
Cc1ccc(CNC(=O)c2c(Nc3ccccc3C)sc(C(=O)c3ccc(F)cc3)c2N)cc1,"inconclusive: 39.8 µM [cytotoxic, single point]",–
